± gives the uncertainty stated by the source. In all, about 9,900 compounds were measured (“viability index relative to DMSO control”: median about 1, lowest 2% from about 0.85 on). The list shows a part of the results.

These results are taken from the supplement of paper PMC4723716.

The subject of the test is Plasmodium falciparum NF54 stage V gametocytes. Kind of test: viability index relative to DMSO control (fraction); higher = less gametocyte killing. Particulars: 2.5 µM, library set: Broad Institute DOS, incubation time: 72 h. The essentials: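 In 1,536-well plates, 10 µl of serum-free medium holding P. falciparum NF54 stage V gametocytes (0.75% gametocytemia, 1.25% hematocrit) received compound at 2.5 µM for 72 hr at 37°C in low oxygen. After one to two hours with 3 µl of 2.5 µM MitoTracker Red CMXRos containing 0.13% saponin, red particles of 20–70 µm2 were counted in a single field per well. Viability index is reported as the particle count over the plate mean of wells treated with solvent only.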
Take `O=C(Nc1ccc(C(F)(F)F)cc1)N1[C@@H]2CNC[C@H]1[C@H]2c1ccc(-c2ccccc2F)cc1`: the viability index was 1.11 ± 0.1. The result for `C[C@@H]1CCCCO[C@H](CN(C)Cc2ccc(C(=O)O)cc2)[C@H](C)CN([C@@H](C)CO)C(=O)c2cc(N(C)C)ccc2O1` reads 1.16 ± 0.032.

`CCC(=O)Nc1ccc2c(c1)C(=O)N(C)C[C@H](OC)[C@@H](C)CN(Cc1nccs1)[C@@H](C)CO2` came in with a viability index of 1.13 ± 0.022. Regarding `C/C=C/c1ccc([C@@H]2[C@@H](CO)N3C(=O)CN(C(=O)c4ccncc4)C[C@@H]23)cc1`, the viability index was found to be 1.08 ± 0.011. Next, `CCCN1C[C@H](C)[C@H](OC)CN(C)C(=O)c2cc(NS(=O)(=O)c3ccccc3)ccc2OC[C@@H]1C`: 0.99 ± 0.002; `O=C(C[C@@H]1CC[C@H]2[C@@H](COC[C@@H](O)CN2C(=O)Cc2ccccc2)O1)NC1Cc2ccccc2C1`: 1.04 ± 0.059; `O=C(C[C@H]1CC[C@H]2[C@@H](COC[C@@H](O)CN2CCc2ccccc2)O1)NCCCN1CCOCC1`: 1.03 ± 0.12. With `C[C@H](CO)N1C[C@H](C)[C@@H](CN(C)C(=O)Cc2cccnc2)Oc2cc(C#Cc3ccccc3F)ccc2S1(=O)=O`, the viability index came to 0.993 ± 0.065. Next, `C[C@@H]1CN([C@H](C)CO)C(=O)c2cc(N(C)C)ccc2O[C@@H]1CN(C)Cc1ccc(Oc2ccccc2)cc1`: 1.05 ± 0.025; `C[C@@H]1CN([C@@H](C)CO)C(=O)c2cc(N(C)C)ccc2O[C@@H](C)CCCCO[C@H]1CN(C)S(=O)(=O)c1cn(C)cn1`: 0.99 ± 0.031; `COc1cccc(-c2ccc3c(c2)O[C@H](CN(C)Cc2cccnc2)[C@@H](C)CN([C@@H](C)CO)S3(=O)=O)c1`: 0.975 ± 0.052.

The compound `COc1cccc(NC(=O)N[C@H]2CC[C@@H](CC(=O)N3CCN(C)CC3)O[C@@H]2CO)c1` showed a viability index of 1.13 ± 0.031.

`Cc1noc(C)c1S(=O)(=O)N(C)C[C@H]1OCc2cn(nn2)CCCC(=O)N([C@@H](C)CO)C[C@@H]1C` yielded a viability index of 1.1 ± 0.045. In the case of `C[C@H](CO)N1C[C@H](C)[C@H](CN(C)C(=O)c2ccccc2)Oc2cc(-c3cccc(C#N)c3)ccc2S1(=O)=O`, the viability index was 1.08 ± 0.012. The result for `CO[C@H]1CN(C)C(=O)c2ccc(NC(=O)c3ccno3)cc2OC[C@H](C)N(S(C)(=O)=O)C[C@H]1C` reads 1.094 ± 0.0085; that for `C[C@H](CO)N1C[C@H](C)[C@H](CN(C)S(=O)(=O)c2cn(C)cn2)Oc2c(NC(=O)Nc3ccc(C(F)(F)F)cc3)cccc2C1=O`, 1.0734 ± 0.001.

Compound `O=C(C[C@@H]1CC[C@@H]2[C@H](COC[C@@H](O)CN2C(=O)c2cnccn2)O1)N1CCN(c2ccccc2)CC1` showed a viability index of 1.03 ± 0.014. `COc1ccc2c3c([C@@H](CO)NC[C@]33CN(C3)S(=O)(=O)c3ccc(C)cc3)n(C)c2c1` returned a viability index of 1.01 ± 0.048. Next, `N#C[C@H]1[C@@H](c2ccccc2)[C@H](CO)N1C(=O)Nc1cccc(F)c1`: 1.18 ± 0.045; `COc1ccc(-c2cn(CC[C@@H]3CC[C@@H](NC(=O)c4cnccn4)[C@H](CO)O3)nn2)cc1`: 1.13 ± 0.092. Next, `CC(C)CC#Cc1ccc([C@@H]2[C@H](CO)N3CCCCN(C(=O)Nc4ccccc4)C[C@@H]23)cc1`: 0.877 ± 0.053. Next, `O=C1NCCOCc2cn(nn2)CC[C@H]1Cc1ccc(F)cc1`: 1.01 ± 0.034; `CCCNC(=O)Nc1ccc2c(c1)C(=O)N(C)C[C@H](OC)[C@H](C)CN(C)[C@@H](C)CO2`: 1.13 ± 0.07; `O=C(c1ccccn1)N1CC[C@@H]2[C@H]1c1cc(Br)ccc1N[C@@H]2CO`: 1.07 ± 0.0095.

As for `Cc1ccc(S(=O)(=O)Nc2ccc3c(c2)C(=O)N([C@@H](C)CO)C[C@H](C)[C@@H](CN(C)S(=O)(=O)c2cccs2)OCCCC[C@@H](C)O3)cc1`, the viability index worked out at 1.12 ± 0.013. The result for `CO[C@@H]1CN(C)C(=O)c2cc(NC(=O)c3ccccc3F)ccc2OC[C@H](C)N(CC2CCOCC2)C[C@H]1C` reads 1.0033 ± 0.001; that for `CN1CCN(C(=O)C[C@@H]2CC[C@H]3[C@@H](COC[C@H](O)CN3C(=O)c3ccccc3F)O2)CC1`, 1.06 ± 0.037. Next, `CO[C@@H](C(=O)N(C)C[C@@H]1OCc2ccccc2-c2ccccc2C(=O)N([C@H](C)CO)C[C@@H]1C)c1ccccc1`: 0.993 ± 0.063; `CCS(=O)(=O)Nc1ccc2c(c1)C(=O)N(C)[C@@H]1CC[C@@H](CC(=O)N[C@@H]3CCN(Cc4ccccc4)C3)O[C@H]1CO2`: 1.1 ± 0.056. `CO[C@@H](CN(C)C(=O)Nc1ccc(Cl)cc1)[C@H](C)CN(Cc1ccccc1Cl)[C@@H](C)CO` had a viability index of 1.01 ± 0.11. Next, `N#C[C@@H]1[C@H](c2ccc(-c3cccnc3)cc2)[C@H](CO)N1C(=O)C1CCOCC1`: 1.077 ± 0.0064. The result for `O=C(C[C@@H]1C=C[C@@H](NS(=O)(=O)c2ccccc2)[C@@H](CO)O1)NCCN1CCCCC1` reads 1.08 ± 0.094; that for `Cc1ccccc1-c1cnc2c(c1)C(=O)N([C@H](C)CO)C[C@@H](C)[C@@H](CN(C)Cc1ccccc1F)O2`, 1.002 ± 0.0018; that for `C[C@@H]1CN([C@H](C)CO)C(=O)c2cc(NC(=O)C3CCCCC3)ccc2O[C@@H]1CN(C)C(=O)Nc1ccc(C(F)(F)F)cc1`, 1.06 ± 0.068. The result for `Cc1cc(C(=O)Nc2ccc3c(c2)C(=O)N(C)[C@@H]2CC[C@@H](CC(=O)NCc4ccc(-c5ccccc5)cc4)O[C@@H]2CO3)no1` reads 1.1 ± 0.17; that for `CCC(=O)N1[C@H](CO)[C@@H]2c3ccccc3N(S(=O)(=O)c3ccc(F)cc3)C[C@@H]21`, 1.01 ± 0.08.

`CCC(=O)N1C[C@H]2[C@@H](c3ccccc31)[C@H](CO)N2Cc1ccc(F)cc1` came in with a viability index of 1.07 ± 0.1.

The compound `CCCC(=O)N1C[C@]2(CN(Cc3nccs3)C2)c2c([nH]c3cc(OC)ccc23)[C@@H]1CO` showed a viability index of 1 ± 0.024. Turning to `CN(C)C(=O)c1ccc(-c2ccc([C@@H]3[C@@H](CO)N4C(=O)CN(C(=O)CC5CC5)C[C@H]34)cc2)cc1`, the viability index was determined as 1.076 ± 0.0019. `O=C1N[C@H](c2ccccc2)COCn2nncc2CC[C@H]1Cc1ccccc1` returned a viability index of 1.05 ± 0.036. Next, `N#Cc1cccc(-c2ccc([C@H]3[C@H]4CNC[C@@H]3N4S(=O)(=O)c3ccc(F)cc3)cc2)c1`: 0.993 ± 0.14. The result for `C[C@@H]1CCCCO[C@H](CN(C)Cc2ccc3c(c2)OCO3)[C@H](C)CN([C@H](C)CO)C(=O)c2cc(NS(=O)(=O)c3cn(C)cn3)ccc2O1` reads 1.054 ± 0.0031; that for `Cc1noc(C)c1NC(=O)N1C[C@H](O)COC[C@@H]2O[C@H](CC(=O)N[C@@H]3CCN(Cc4ccccc4)C3)CC[C@H]21`, 1.06 ± 0.093. The result for `C[C@H](CO)N1C[C@H](C)[C@H](CN(C)C(=O)Nc2ccccc2C(F)(F)F)OCc2cnnn2CCCC1=O` reads 1.03 ± 0.014.

Take `CN(C)C(=O)c1cccc(-c2ccc([C@@H]3[C@H]4CN(C(=O)C5CCC5)CC(=O)N4[C@H]3CO)cc2)c1`: the viability index came out at 0.9976 ± 0.0084. Next, `CO[C@@H](CN(C)C(=O)c1ccccc1F)[C@@H](C)CN([C@@H](C)CO)S(=O)(=O)c1ccc(F)cc1`: 1.06 ± 0.088; `COc1ccc(S(=O)(=O)N(C)C[C@H]2Oc3ccc(NC(=O)Cc4cn(C)c5ccccc45)cc3C(=O)N([C@H](C)CO)C[C@H]2C)cc1`: 1.01 ± 0.027.

As for `COc1ccc2c3c([C@H](CO)N(CC4CC4)C[C@]33CN(C3)C(=O)Nc3ccc(F)cc3F)n(C)c2c1`, the viability index was determined as 0.957 ± 0.025.

Compound `C[C@H](CO)N1C[C@H](C)[C@H](CN(C)S(=O)(=O)c2cccs2)Oc2ncc(-c3cc4ccccc4o3)cc2C1=O` yielded a viability index of 0.891 ± 0.12.

For `O=C(C[C@@H]1CC[C@H]2[C@@H](COC[C@H](O)CN2C(=O)Nc2ccc(Cl)cc2)O1)NCC1CCCCC1`, the viability index came to 1.08 ± 0.072. Next, `CCS(=O)(=O)N1CC(=O)N2[C@H](CO)[C@@H](c3ccc(-c4cccc(F)c4)cc3)[C@H]2C1`: 1.06 ± 0.056; `C[C@H](CO)N1C[C@H](C)[C@@H](CN(C)CC2CCCCC2)OCCCC[C@H](C)Oc2ccc(NS(C)(=O)=O)cc2C1=O`: 0.976 ± 0.089. In turn, `C[C@H]1CN([C@@H](C)CO)C(=O)CCCn2nncc2CO[C@@H]1CN(C)S(=O)(=O)c1cn(C)cn1` gave a viability index of 1.055 ± 0.006. The result for `O=C(Nc1ccc(F)cc1)N1C[C@H]2[C@@H](c3ccccc31)[C@H](CO)N2Cc1ccccc1Cl` reads 1.07 ± 0.026; that for `CS(=O)(=O)N1CC(=O)N2[C@H](C1)[C@@H](c1ccc(C#Cc3ccc(F)cc3)cc1)[C@@H]2CO`, 0.9545 ± 0.0077. Next, `C[C@@H]1CN([C@@H](C)CO)C(=O)c2cc(-c3cccc(C#N)c3)cnc2O[C@H]1CN(C)C(=O)C1CCOCC1`: 0.983 ± 0.016; `CN(C)CCCNC(=O)[C@@H]1[C@@H](CO)[C@@H]2Cn3c(ccc(-c4cccnc4)c3=O)[C@H]1N2C(=O)CC1CC1`: 1.038 ± 0.0047; `O=C(C[C@H]1C[C@@H]2c3cc(NC(=O)Nc4ccccc4F)ccc3O[C@@H]2[C@@H](CO)O1)NCc1ccccn1`: 0.991 ± 0.041. For the compound `C[C@@H]1CN([C@H](C)CO)C(=O)CCCn2nncc2CO[C@H]1CN(C)S(=O)(=O)c1ccc(Oc2ccccc2)nc1`, the viability index was determined as 1.05 ± 0.032. The result for `C[C@H]1CN([C@@H](C)CO)S(=O)(=O)c2ccc(C#Cc3cccc(F)c3)cc2O[C@@H]1CN(C)S(=O)(=O)c1cn(C)cn1` reads 0.985 ± 0.049; that for `COc1ccc(S(=O)(=O)N(C)C[C@@H]2Oc3ccc(NC(=O)Nc4ccc(C(F)(F)F)cc4)cc3C(=O)N([C@H](C)CO)C[C@H]2C)cc1`, 0.957 ± 0.08. Next, `C[C@H]1CCCCO[C@H](CN(C)S(=O)(=O)c2cn(C)cn2)[C@@H](C)CN([C@@H](C)CO)C(=O)c2cc(NC(=O)Nc3cccc4ccccc34)ccc2O1`: 1 ± 0.13. The result for `N#Cc1ccc(-c2ccc([C@H]3[C@@H]4CN(S(=O)(=O)c5ccc(F)cc5)C[C@H]3N4)cc2)cc1` reads 0.977 ± 0.013. `CC(=O)N1[C@@H](CO)[C@H](c2ccccc2)[C@@H]1CN(C)S(=O)(=O)c1ccccc1` yielded a viability index of 1.01 ± 0.019. The result for `O=C(Nc1ccc(F)cc1)N1CC(=O)N2[C@H](C1)[C@H](c1ccc(C3=CCCC3)cc1)[C@@H]2CO` reads 1.06 ± 0.081. The result for `N#C[C@@H]1[C@@H](c2ccccc2)[C@H](CO)N1C(=O)c1ccc2c(c1)OCO2` reads 1.09 ± 0.028; that for `COc1ccc2c3c([C@H](CO)NC[C@]33CCN(CC3)C(=O)Nc3ccc4OCOc4c3)n(C)c2c1`, 1 ± 0.034.

Turning to `Cc1ccccc1S(=O)(=O)Nc1ccc2c(c1)C(=O)N(C)[C@@H]1CC[C@H](CC(=O)O)O[C@@H]1CO2`, the viability index was determined as 1.01 ± 0.033. In turn, `COc1ccccc1CNC(=O)C[C@H]1CC[C@H]2[C@@H](COC[C@H](O)CN2Cc2ccc3c(c2)OCO3)O1` had a viability index of 1.0893 ± 0.001.
